According to PubChem BioAssay AID485294 (National Center for Advancing Translational Sciences (NCATS), 2010):
Among all 370,000 compounds or so, about 150 (0.041%) were called active. The inconclusive results got no clear call from the source; some entries with a clear call stand among them for comparison. Calls come from the whole dose curve; as a rule, active = well fitted inhibition curve with a large enough effect; inconclusive = small, poorly fitted or top-dose-only effect; inactive = flat fitted curve, though single readings scatter. Potencies of inconclusive entries are left out as doubtful fits.

The compounds below were run against Beta-lactamase (Escherichia coli (strain K12)) (UniProt P00811) (assay: qHTS Inhibitors of AmpC Beta-Lactamase (assay with detergent)). Conditions: AmpC hydrolysis of nitrocefin, absorbance 480 nm, 0.01% Triton; activity change, negative = inhibition: at 114 µM (top of the series).
UniProt P00811, sequence (P00811 whole entry, looked up): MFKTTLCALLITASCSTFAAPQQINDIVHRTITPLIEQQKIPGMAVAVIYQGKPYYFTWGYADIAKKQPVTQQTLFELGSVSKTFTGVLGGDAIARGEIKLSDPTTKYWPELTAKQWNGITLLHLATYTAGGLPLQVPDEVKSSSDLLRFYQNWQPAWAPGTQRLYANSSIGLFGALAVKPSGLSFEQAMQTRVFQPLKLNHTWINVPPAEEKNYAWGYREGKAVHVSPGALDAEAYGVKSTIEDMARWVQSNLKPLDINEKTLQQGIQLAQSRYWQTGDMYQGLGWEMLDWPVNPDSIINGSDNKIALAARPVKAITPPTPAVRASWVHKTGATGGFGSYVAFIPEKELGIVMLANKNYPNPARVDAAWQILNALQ
How it was run: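 20 mM phosphate pH 7.0 + 0.01% (detergent screen) or 0.0001% Triton X-100; 5.3 nM AmpC reagent; cpd preinc 15 min RT; nitrocefin (800 uM stock) to start; A480 q20 s × 4 min; Activity was normalised to no-enzyme and no-compound control wells.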
Note: nearly all actives have a fitted effect of over 25% in size.
Potency is the fitted concentration of half-maximal effect; tags give direction and shape of the fitted curve.
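Throughout, for activity change, negative = inhibition: 0% = no-compound wells and -100% = no-enzyme wells.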

Structure (SMILES) | Potency | activity change, negative = inhibition
CC(=O)c1ccc(NC(=S)Nc2cccc3ccccc23)cc1 | inconclusive [inhibitor, full curve, poor fit] | 
CCOC(=O)N/N=C/C=C/c1ccccc1 | inconclusive [inhibitor, full curve, poor fit] | 
COC(=O)C1=CN(c2ccc(F)cc2)C=C(C(=O)OC)C1c1ccc([N+](=O)[O-])cc1 |  | inactive: -11.9%
O=C(O)CN1CCNCC1 | inconclusive [inhibitor, full curve, poor fit] | 
CCOC(=O)c1cccc(P(=O)(C(C)(C)C)C(C)(C)C)c1 |  | inactive: 2.15%
O=C(O)c1ccccc1-c1ccccc1C(=O)NCCCO | inconclusive [inhibitor, partial curve] | 
CCCN(CCC)S(=O)(=O)c1cc2c3c(c1)CCN3C(=O)CC2 | inconclusive [inhibitor, full curve] | 
O=C(CSc1nccn1-c1ccc(Cl)cc1)NCc1ccc2c(c1)OCO2 | inconclusive [inhibitor, partial curve, poor fit] | 
Cc1ccc(N2CC(C(=O)Nc3ccc4c(c3)OCO4)CC2=O)cc1C (stereo unspecified) | inconclusive [inhibitor, full curve] | 
O=C(COC(=O)COc1ccccc1[N+](=O)[O-])Nc1cccc(Br)c1 |  | inactive: -22.9%
COC(=O)CCC(NS(=O)(=O)OCC(Cl)(Cl)Cl)c1ccccc1 (stereo unspecified) | inconclusive [inhibitor, full curve, poor fit] | 
COc1cc(CC(=O)OCC(=O)Nc2ccccc2C#N)cc(OC)c1OC |  | inactive: -4.78%
CC(C)NC(C)C(=O)c1ccc2ccccc2c1 (stereo unspecified) | inconclusive [inhibitor, single point] | 
Cc1cc(C)cc(-n2ncc3c2CCCC3NC(=O)c2cc(C)oc2C)c1 (stereo unspecified) |  | inactive: -10.9%
COc1ccccc1CNC(=O)c1c(O)c2cc(OC)c(OC)cc2[nH]c1=O | inconclusive [inhibitor, partial curve, poor fit] | 
O=C(NC1CC1)C(=O)c1c[nH]c2ccccc12 |  | inactive: -10.6%
Cc1cccn2c(=O)c3cc(C(=O)NCCN4CCOCC4)c(=N)n(CCCN4CCOCC4)c3nc12 |  | inactive: -1.63%
COc1ccccc1NC(=O)c1cn(CCC#N)nc1-c1cccc(Cl)c1 | inconclusive [inhibitor, full curve, poor fit] | 
CCCCCNCc1ccc(Br)cc1 | inconclusive [inhibitor, partial curve] | 
COC(=O)c1ccc(-n2c(C)cc(C(=O)COC(=O)CNS(=O)(=O)c3ccc(C)cc3)c2C)cc1 | inconclusive [inhibitor, full curve, poor fit] | 
Cc1sc2nc(NCCO)[nH]c(=O)c2c1C | inconclusive [inhibitor, partial curve, poor fit] | 
COC(=O)c1cc(/C=C/c2ccccc2)on1 | inconclusive [inhibitor, partial curve, poor fit] | 
O/N=C/c1ccc2ccccc2n1 |  | inactive: -9.33%
COc1cccc(-c2nc(C(N)=O)c3[nH]c(=O)n(-c4cccc(Cl)c4)c3n2)c1OC | inconclusive [inhibitor, partial curve] | 

Structure (SMILES) | Potency | activity change, negative = inhibition
Cc1c(-c2ccncc2)oc2ccc(Br)cc2c1=O |  | inactive: 1.53%
Cc1ccc(S(=O)(=O)N(CC(=O)N2CCC(C(N)=O)CC2)Cc2ccc(F)cc2)cc1 | inconclusive [inhibitor, partial curve] | 
COc1ccc(CC(NC(C)=O)C(=O)NC2CCN(c3c(Cc4ccccc4)c(C)nc4ncnn34)CC2)cc1OC (stereo unspecified) | inconclusive [inhibitor, full curve, poor fit] | 
COc1ccccc1OCCOCCOc1ccc(C)cc1Br | inconclusive [inhibitor, partial curve] | 
O=C(CSCc1ccc(Cl)cc1)NCc1ccccn1 | inconclusive [inhibitor, partial curve, poor fit] | 
CCn1ccc(C(=O)Nc2c(C)nn(Cc3c(F)c(F)c(F)c(F)c3F)c2C)n1 | inconclusive [inhibitor, full curve] | 
Cc1cc(OCC(=O)Nc2ccc(C(=O)OC3CCCCC3)cc2)ccc1Cl |  | inactive: -9.09%
O=[N+]([O-])c1ccccc1OCCNCc1ccccc1 | inconclusive [inhibitor, partial curve] | 
Cn1c(SCC(=O)c2ccccc2)nnc1-c1cccs1 | inconclusive [inhibitor, single point] | 
Cc1cccc(NC(=O)Nc2ccc(C)c(C)c2)n1 | inactive | 
CCc1nc(N)c(C#N)c(-c2ccco2)c1C | inconclusive [inhibitor, partial curve, poor fit] | 
Cn1c2ccccc2c(=O)c2cc(C#Cc3ccc(N)cc3)ccc21 |  | inactive: -2.04%
CCC1CCCCN1CCCNC(=O)C1CCN(S(=O)(=O)N2CCC3(CC2)OCCO3)CC1 (stereo unspecified) | inconclusive [inhibitor, partial curve] | 
COc1ccc([C@@H]2[C@@H]3C(=O)N(C(C)(C)C)C(=O)[C@@H]3[C@]3(Cc4ccccc4)C(=O)N(c4cccc(Cl)c4)C(=O)N23)cc1 | inconclusive [inhibitor, full curve] | 
O=C(NCCc1ccc(Cl)cc1)C1CCN(C(=O)N2CCOc3ccccc32)CC1 |  | inactive: -14.6%
N#CC1(c2ccccc2)CCCN1C(=O)c1ccccc1Cl (stereo unspecified) | inconclusive [inhibitor, partial curve, poor fit] | 
CCCS(=O)(=O)c1nc(S(=O)(=O)c2ccc(C)cc2)c(NCCCN2CCCC2=O)s1 | inconclusive [inhibitor, full curve, poor fit] | 
N=C1SCC(=O)N1/N=C/c1ccccc1 | inconclusive [inhibitor, single point] | 
CC(=O)c1cc(F)c(N2CCN(C(=O)COc3ccc(F)cc3)CC2)cc1C | inconclusive [inhibitor, partial curve, poor fit] | 
Cc1cc(N2CCN(C)CC2)nc2ccc(NC(=O)c3ccccc3F)cc12 | inconclusive [inhibitor, single point] | 
COCCn1cc(-c2csc(N)n2)c2ccccc21 | inconclusive [inhibitor, full curve, poor fit] | 
CCOC(=O)CC(=O)c1sc2c(c1N)c(=O)[nH]c(=O)n2-c1ccc(OC)cc1 |  | inactive: -1.12%
Cc1cccc(OCCCCc2c(C)n[nH]c2C)c1C | inconclusive [inhibitor, full curve, poor fit] | 
COc1cc2c(cc1OC)CN(Cc1cc(OC)c(O)c(OC)c1)CC2 |  | inactive: -13.8%

Structure (SMILES) | Potency | activity change, negative = inhibition
N#C/C(=C\c1ccc(F)cc1)c1n[nH]c(Cn2cncn2)n1 | inconclusive [inhibitor, full curve, poor fit] | 
CCOc1ccc(C(C)NC(=O)C2CCCC2)cc1 (stereo unspecified) | inconclusive [inhibitor, full curve, poor fit] | 
Cc1ccc2oc(-c3ccc(NC(=O)c4cccnc4)cc3)nc2c1 |  | inactive: 0.75%
CCc1ccc(NC(=O)CSC2=Nc3ccccc3C3=NC(CC(=O)NCc4cccs4)C(=O)N23)cc1 (stereo unspecified) |  | inactive: 0.158%
COc1ccc(C2NC(=O)NC(O)(C(F)(F)F)C2C(=O)c2ccc(C)cc2)cc1 (stereo unspecified) | inconclusive [inhibitor, full curve, poor fit] | 
Cc1cccc(N(C)C(=O)CCS(=O)(=O)c2cccc3nonc23)c1 |  | inactive: -9.24%
COc1ccc(NC(=O)CSCc2ccc(C)cc2)cc1 | inconclusive [inhibitor, full curve, poor fit] | 
CCOC(=O)c1csc(NC(=O)c2ccc(OC)c(OC)c2)n1 | inconclusive [inhibitor, partial curve] | 
CCOC(=O)NCCOC(=O)Nc1ccc(Cl)cc1 |  | inactive: 0.676%
COc1ccc(CN(CC2CCCO2)S(=O)(=O)c2ccc(-n3cnnn3)c(OC)c2)cc1 (stereo unspecified) |  | inactive: -0.705%
O=C(Nc1nc(-c2cc3ccccc3oc2=O)cs1)c1ccco1 | inconclusive [inhibitor, full curve] | 
O=C(c1cccs1)N(Cc1ccco1)c1nc(-c2ccc(F)cc2)cs1 | inconclusive [inhibitor, full curve, poor fit] | 
COCc1nnc(NC(=O)CC(C)C)s1 | inconclusive [inhibitor, single point] | 
CC12CCC(=O)N1C(C(=O)NNC(=O)COc1ccccc1Cl)CS2 (stereo unspecified) |  | inactive: -2.46%
CCOc1ccc(NC(=O)Nc2cccc(C(=O)O)c2)cc1 |  | inactive: 4.75%
N#CC1(NC(=O)CSc2nnc(-c3ccccc3F)o2)CCCCC1 | inconclusive [inhibitor, single point] | 
CC(C)C[C@H](NC(=O)N1CC(=O)Nc2ccccc21)C(=O)N[C@H](Cc1ccccc1)C(=O)O | inconclusive [inhibitor, full curve, poor fit] | 
O=C(c1ccccc1)C(Nc1ccccn1)c1ccccc1 (stereo unspecified) |  | inactive: -5.34%
CSc1ccccc1NC(=O)CN1CCCCC1 |  | inactive: -13.8%
Cn1c(=O)[nH]c(=O)c2c1nc(N1CCOCC1)n2CCCSc1ncccn1 | inconclusive [inhibitor, full curve, poor fit] | 
CC1CCN(S(=O)(=O)c2ccc(C(=O)N3CCCC3C(=O)O)cc2)CC1 (stereo unspecified) |  | inactive: 4.07%
CCCCOC(=O)Cn1c(=O)n(CC(=O)OCCCC)c2cc(C)ccc21 | inconclusive [inhibitor, full curve, poor fit] | 
Cc1ccc(NCc2cccnc2)c(Br)c1 | inconclusive [inhibitor, full curve, poor fit] | 
